The results in this text go back to patent US20250114430A1, “MODIFIED PEPTIDOMIMETICS AND METHODS OF USE” (The University of North Carolina at Chapel Hill, priority 2021, published 2025).

On the data set, the source says: ELD100 contained 16 residues. A series of peptides were generated including N-terminal, C-terminal and mid-peptide deletions to fully-optimize the peptide's size. […] Using this approach, a library was generated to fully optimize ELD100. […] The amino acid sequence modifications included alanine scanning, conservative mutations, shorter sequences and N- and C-terminus modifications (D-ala and Ser additions).

No end group written: not given here.

As to “DITLVHDIVNMLIHGL [ELD100, DITLVHDIVNMLIHGL]”, the “cleavage in CF patient sputum” value is on record as “cleaved after valines by neutrophil elastase”.
